About 6,900 (2%) of roughly 340,000 compounds were called active. Rule as the data show it: active = inhibition above about 30%; inactive = below that, where a call was filed. The entries are a selection whose mix differs from that of the whole data set. Entries without a call were filed so in the source.
Each compound was assayed against D(2) dopamine receptor (Homo sapiens) (UniProt P14416) (assay: HTS Assay for Allosteric Antagonists of the Human D2 Dopamine Receptor: Primary Screen for Antagonists). Conditions: HEK293 TREx D2 cells, calcium flux, dopamine EC80; at 10 µM; stronger effect = higher value.
Procedure, shortened: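 Tetracycline-induced HEK293 TREx cells expressing D2 receptor forced-coupled to calcium signalling, loaded with no-wash calcium dye. Compounds added and calcium flux read 180 s, then dopamine added at EC80 and read a further 180 s.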
Also: 0% is about no effect.

Sequence of UniProt P14416 (P14416 whole entry, looked up): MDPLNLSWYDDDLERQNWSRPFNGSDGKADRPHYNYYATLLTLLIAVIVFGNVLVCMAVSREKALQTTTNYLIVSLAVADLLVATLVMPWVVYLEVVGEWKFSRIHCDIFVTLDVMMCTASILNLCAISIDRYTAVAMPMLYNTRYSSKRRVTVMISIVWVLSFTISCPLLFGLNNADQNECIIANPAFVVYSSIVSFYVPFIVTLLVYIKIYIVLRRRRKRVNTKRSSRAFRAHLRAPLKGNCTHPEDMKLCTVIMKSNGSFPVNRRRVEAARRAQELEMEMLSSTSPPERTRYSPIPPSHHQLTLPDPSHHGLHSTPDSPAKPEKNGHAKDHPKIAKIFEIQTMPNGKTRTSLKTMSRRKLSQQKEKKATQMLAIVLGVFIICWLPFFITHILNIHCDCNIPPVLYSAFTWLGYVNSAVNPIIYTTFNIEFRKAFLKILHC

Row | Compound | inhibition
1 | COc1cccc(CNC(=O)CN2C(=O)CSc3ccc(S(=O)(=O)N(C)C)cc32)c1 | -6.32%
2 | Cc1ccc(-c2nc3sccn3c2Nc2ccccc2C)cc1 | -8.78%
3 | CC1CCN(C(=O)c2cnn(-c3ccc(Cl)cc3)c2C2CCN(C(=O)OC(C)(C)C)CC2)CC1 | 3.78%
4 | Cc1c(C(=O)OC2CCCC2)[nH]c2c1C(=O)CC(c1ccc(C(C)(C)C)cc1)C2 (centres undefined) | 1.99%
5 | CC(C)(C)C1CCc2c(sc(NC(=O)c3cccc(Cl)c3)c2C(N)=O)C1 (centres undefined) | -6.8%
6 | COc1ccccc1-c1cc(NC(=O)COc2ccccc2Cl)n(-c2ccccc2)n1 | -7.87%
7 | Cc1ccc(-c2[nH]c3ccccc3c2SCCNC(=O)c2ccc(S(=O)(=O)N3CCOCC3)cc2)cc1 | -1.18%
8 | Cc1cccc2c1-c1sc(C(=O)NCCc3ccc(Cl)cc3)cc1CO2 | 5.66%
9 | Cc1ccccc1OCCSc1nc(C)c(Cc2ccccc2)c(=O)[nH]1 | 8.06%
10 | COc1ccc(-c2nn(C)c3sc(C(=O)N4CCN(c5ccccc5F)CC4)cc23)cc1OC | -21.3%
11 | Oc1ccc(CN2CCc3ccccc3C2)c2cccnc12 | active: 65.2%
12 | COc1cccc(CNC(=O)C(C)n2ccc3cc(S(=O)(=O)N4CCCCCC4)ccc32)c1 (centres undefined) | -6.69%
13 | Cc1ccc(S(=O)(=O)N(CC(O)CN2C(=O)NC(C)(C)C2=O)c2cccc([N+](=O)[O-])c2)cc1 (centres undefined) | active: 30.4%
14 | CCN(C(=O)C1CCN(S(=O)(=O)c2ccc3c(c2)oc(=O)n3C)CC1)c1cccc(C)c1 | active: 38.9%
15 | Cc1ccc(C)c(NC(=O)C2CCN(c3nn4c(=O)cc(C)nc4s3)CC2)c1 | 7%
16 | CCN1CCN(Cc2nc3cc(NC(=O)c4ccccc4[N+](=O)[O-])ccc3n2CC)CC1 | 4.52%
17 | O=C(Nc1cccc(F)c1)c1ccc2c(c1)OCO2 | active: 30.8%
18 | COc1ccc(NC(=O)c2ccc3c(c2)c(C)c(C)n3Cc2ccc(F)cc2)cc1 | 6.83%
19 | CC1CCC(N2CC(=O)N(C3CCCC3)C(c3ccc(Cl)cc3)C2=O)CC1 (centres undefined) | 17.3%
20 | Cc1ccc(C)c(CN2C(=O)c3ccccc3Sc3ccc(C(=O)NCc4cccs4)cc32)c1 | -14.4%
21 | COc1ccc(NC(=O)c2c(N)c(C(=O)c3ccc(C)cc3)n3ccccc23)cc1OC | 3.87%
22 | Cc1ccc(Cl)cc1N1CCN(C(=O)c2cn(C)c3ccc(S(=O)(=O)N(C)C4CCCCC4)cc3c2=O)CC1 | 4.47%
23 | COc1ccc(CNC(=O)CCc2nc3cccnc3n2Cc2ccccc2)cc1 | -1.03%
24 | Cc1cccc(N2CCN(C(=O)c3c(C)oc4nc(C)nc(N5CCCC5)c34)CC2C)c1 (centres undefined) | 7.79%

Row | Compound | inhibition
25 | CC(=O)Nc1ccc(NC(=O)C(Cc2ccccc2)N2Cc3ccccc3C2=O)cc1 (centres undefined) | -5.15%
26 | Cc1ccc(C)c(N2CCN(CCCc3ccccc3)CC2)c1 | active: 51.3%
27 | Cc1ccc(NC(=O)Cn2c(=O)n(CCC(=O)NCCc3ccccc3)c(=O)c3ccccc32)cc1 | 9.81%
28 | Cc1ccc(-n2ncc3c(Nc4cccc(C)c4)ncnc32)cc1 | 10.8%
29 | O=C(Nc1c(C(=O)N2CCC(N3CCCCC3)CC2)oc2ccccc12)c1c(F)cccc1F | 14.2%
30 | Cn1cc(S(=O)(=O)c2ccccc2)c(=O)c2cc(F)c(N3CCN(c4ccc(F)cc4)CC3)cc21 | -6.54%
31 | Cc1ccc(-c2nnc(Nc3ccc(Cl)cc3)c3ccccc23)cc1S(=O)(=O)N1CCOCC1 | 1.59%
32 | CN(C)S(=O)(=O)c1ccc2c(c1)N(CC(=O)N1CCCCC1)CCS2 | 8.49%
33 | CC(C)(C)C(=O)NC(=S)NNC(=O)C(c1ccccc1)c1ccccc1 | active: 75.3%
34 | O=C(C1CCN(c2nc3ccccc3[nH]2)CC1)N1CCN(c2ccccc2)CC1 | 18.7%
35 | COc1ccccc1NC(=O)CCn1nc(-c2ccccc2)c2ccccc2c1=O | -6.77%
36 | CN(C(=O)c1ccc2c(c1)N(Cc1ccccc1F)C(=O)c1ccccc1S2)C1CCCCC1 | 11%
37 | CCCN1CCN(CCCNC(=O)c2ccc3c(c2)sc2nc(-c4ccc(C)cc4)cn23)CC1 | 10.5%
38 | Cc1cccc(NCc2nnc3n2CCCCC3)c1C | 11.9%
39 | COc1ccccc1N1CCN(c2nc3ccc(C)cc3nc2-n2nc(C)cc2C)CC1 | -1.77%
40 | COc1ccccc1-c1oc2ccccc2c1C#CC(C)(C)O | active: 52.4%
41 | Cc1cccc(-c2noc(-c3ccc(NCC4CCCO4)c([N+](=O)[O-])c3)n2)c1 (centres undefined) | 14%
42 | CCOC(=O)c1c(C)n(-c2ccccc2)c2ccc(OC(=O)c3ccc(OCC)c(OCC)c3)cc12 | -14%
43 | O=C1N(CN2CCN(c3cccc(Cl)c3)CC2)c2ccccc2C12OCCCO2 | active: 33.4%
44 | COc1ccc(NC(=O)c2cc3c([nH]c2=O)CC(c2ccccc2)CC3=O)cc1 (centres undefined) | 16.7%
45 | CCCOc1ccc(OC(=O)c2c(-c3ccccc3Cl)noc2C)cc1 | -1.22%
46 | COc1ccc(NC(=O)Cn2c(=O)n(-c3ccc(CC(=O)NCC4CCCO4)cc3)c(=O)c3ccccc32)c(OC)c1 (centres undefined) | 12.3%
47 | COc1ccc(C2=Nn3c(nc4sc(C(=O)Nc5cccc(C)c5)c(C)c4c3=O)SC2)cc1 | 15.8%
48 | COc1ccc(NC(=O)c2ccc3c(c2)c(C)c(C)n3Cc2ccc(F)cc2)c(OC)c1 | 7.59%

Row | Compound | inhibition
49 | COc1cccc(CN2C(=O)c3ccccc3Sc3ccc(C(=O)NCCc4ccc(Cl)cc4)cc32)c1 | -5.98%
50 | COc1ccc(-c2nn3c(-c4ccc(C)cc4)nnc3c3ccccc23)cc1 | -1.44%
51 | CCc1ccc(OCC(=O)N(Cc2ccco2)Cc2ccco2)cc1 | 3.85%
52 | COc1ccc(-c2nn(-c3ccccc3C)cc2CNCc2cccnc2)cc1F | active: 39.4%
53 | CCCCn1cc(S(=O)(=O)c2ccc(OC)cc2)c(=O)c2cc(F)c(F)cc21 | 5.31%
54 | Clc1cccc(-c2csc(-c3nc(-c4ccc(Br)s4)cs3)n2)c1 | 0.518%
55 | CCOc1ccc(NC(=O)c2cc(S(=O)(=O)NC3CCCC3)ccc2F)cc1 | -4.54%
56 | CCc1ccc(NC(=O)CSc2nc(-c3ccccc3)c(C#N)c(=O)[nH]2)cc1 | 13.9%
57 | C=CCn1c(=S)[nH]c2scc(-c3ccc(C)o3)c2c1=O | active: 31.8%
58 | COc1ccc2c(c1)CCc1c(C(=O)Nc3ccccc3C(F)(F)F)noc1-2 | 3.71%
59 | O=C(CC1N=C2c3ccccc3N=C(SCc3ccc(F)cc3)N2C1=O)NCc1cccs1 (centres undefined) | -22.2%
60 | CCOC(=O)c1scc(-c2ccc(C)cc2)c1S(=O)(=O)Nc1cc(Cl)ccc1OC | -15.7%
61 | CCn1c(SCC(=O)c2ccc([N+](=O)[O-])cc2)nnc1-c1ccc(Cl)cc1 | -5.98%
62 | COc1cccc(CNC(=O)Cn2cc3c(n2)-c2c(oc(C(=O)N4CCCC4)c2C)CC3)c1 | -10.4%
63 | CCOC(=O)C1=C(CN2CCN(CC)CC2)NC(=O)NC1c1ccc(Cl)cc1 (centres undefined) | 9.8%
64 | Cc1cc(C(=O)NCc2ccccc2C)c2c(C)nn(-c3cccc(F)c3)c2n1 | -7.74%
65 | CCCCCCn1c(CNC(=O)c2ccccc2)nc2ccccc21 | 2.01%
66 | Cc1ccc(OCc2nc(-c3ccc(C(=O)N4CCN(c5ccc(Cl)cc5)CC4)cc3)oc2C)cc1 | -2.83%
67 | O=C(CCN1CCN(c2ccccc2)CC1)N/N=C/c1ccccc1O | active: 91.3%
68 | CC(C)Oc1ccc(CNC(=O)Cn2c(=O)oc3ccccc32)cc1 | 19.8%
69 | CC(C)CCNC(=O)CSc1c2c(nc3ccc(Cl)cc13)CCCC2 | 9.51%
70 | CCOc1ccc(CNC(=O)C2CCCN(S(=O)(=O)c3ccc4c(c3)CCCC(=O)N4)C2)cc1 (centres undefined) | 4.2%
71 | Cc1nn(Cc2ccc(Cl)cc2)c(C)c1NC(=O)c1noc2c1CCc1ccccc1-2 | 8.61%
72 | COC(=O)c1ccc(-n2c(/C=C\c3cccc(Br)c3)nc3ccccc3c2=O)cc1 | -19.3%

Row | Compound | inhibition
73 | CCc1nc2ccccc2n1CCCCOc1ccccc1C | -2.61%
74 | Cc1ccc(S(=O)(=O)C(CNC(=O)C(=O)NCCc2ccccc2)c2ccco2)cc1 (centres undefined) | 7.52%
75 | Cc1ccc2c(c1)NC(=O)C(CC(=O)NCCCN1CCN(c3cc(Cl)ccc3C)CC1)O2 (centres undefined) | active: 52.9%
76 | CCCn1c(SCC(O)c2cccc(OC)c2)nc2ccccc21 (centres undefined) | -9.59%
77 | O=C(Nc1ccc(N2CCN(CCOc3ccc(Cl)cc3)CC2)c(C(=O)O)c1)c1ccc(F)cc1 | -10.8%
78 | COc1ccc(CNC(=O)c2nnn(CC(=O)Nc3cc(C)cc(C)c3)c2N)cc1 | -19.6%
79 | COc1ccccc1C(=O)NC1(C(F)(F)F)C(=O)Nc2c1c(=O)[nH]c(=O)n2CCc1ccccc1 (centres undefined) | 11.5%
80 | Cc1ccc(C)c(CN2CCCN(Cc3cc(C)ccc3C)S2(=O)=O)c1 | -13.7%
81 | COc1ccc(CNC(=O)C2CCN(c3nc4ccc(C)cc4[nH]3)CC2)cc1 | 16.8%
82 | CCn1c2c(c(=O)n3ncc(C(=O)Nc4cccc(Cl)c4C)c13)CN(Cc1ccc(OC)cc1)CC2 | 5.07%
83 | C=C(C)CSc1nc2sc3c(c2c(=O)n1CCCC)CCCC3 | -2.27%
84 | CCOC(=O)c1c(C)[nH]c(C)c1S(=O)(=O)N1CCC(C(=O)NCc2ccc(C)cc2)CC1 | 5.47%
85 | CCCC(O)c1nc2ccccc2n1CCCCOc1ccc(OC)cc1 (centres undefined) | 24.9%
86 | Cc1cc(C)cc(NC(=O)CSc2nncn3c2cc2occc23)c1 | -15.4%
87 | COc1cc(CNCCCN2CCOCC2)cc(Br)c1OCC(=O)N1CCCCC1 | active: 32.3%
88 | COc1ccc(CCNC(=O)CCCCn2c(=O)c3ccccc3n(CC(=O)Nc3ccccc3C)c2=O)cc1OC | -15.7%
89 | CCCOc1cccc(C(=O)Nc2ccc(-c3nc4ccccc4s3)c(Cl)c2)c1 | 2.03%
90 | COc1ccc(S(=O)(=O)c2cn(Cc3ccccc3)c3cc(N4CCCC4)c(F)cc3c2=O)cc1 | 4.17%
91 | CCN1C(C(=O)c2ccccc2)=C(OC(=O)C(C)C)c2ccccc2S1(=O)=O | -15.3%
92 | CCc1ccccc1NC(=O)Cn1c(=O)nc(-c2ccccc2)c2ccccc21 | 10.5%
93 | COc1ccc(CCNC(=O)CCn2c(=O)c3ccccc3n(Cc3ccc(Cl)cc3)c2=O)cc1OC | 3.68%
94 | CCn1c(=O)c2cc(C(=O)NC3CCCCCC3)sc2c2ccccc21 | -0.927%

— PubChem BioAssay AID485344 (National Center for Advancing Translational Sciences (NCATS), 2010)
